# Source: US20220332813A1 (UNIVERSITY OF MARYLAND BALTIMORE, published 2022)
# Target: T1, full-length human LRP1 (purified) (human, UniProt Q07954)
# T1 construct: also called LDL receptor-related protein 1; purified LRP1
# Experiment: SPR, full-length LRP1 immobilised
row,Kd [nM],Binder
1,230,tau mutant S262A (ligand) not shown
2,450,tau mutant S262E (ligand) not shown
